# ± gives the standard deviation of the averaged measurements. The full ranking holds about 33,000 sequences; the median of “E-score (dimensionless, -0.5 to 0.5)” is about -0.046, and the highest 2% start at about 0.36. The list shows a part of the results.
# Test system: T1, SpTbr T-box DNA-binding domain (GST fusion)
# T1 sequence: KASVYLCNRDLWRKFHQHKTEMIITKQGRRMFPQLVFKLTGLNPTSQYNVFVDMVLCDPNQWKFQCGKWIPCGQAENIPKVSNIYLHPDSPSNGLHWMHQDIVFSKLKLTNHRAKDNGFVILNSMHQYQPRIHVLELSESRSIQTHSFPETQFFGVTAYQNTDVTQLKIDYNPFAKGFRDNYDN
# Experiment: PBM E-score of 8-mer (E-score (dimensionless, -0.5 to 0.5)); Tbr is Tbrain of the sea star Patiria miniata (Pm) or the sea urchin Strongylocentrotus purpuratus (Sp); higher = stronger binding preference; most listed sequences are background and not binding sites
# Conditions: the construct has about 5 more residues each side
# In short: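 Expression of GST-fused Tbr T-box DNA-binding domains, each holding the full T-box plus roughly five flanking residues, was carried out in BL21 E. coli at 20 °C, with purification by glutathione affinity chromatography. Universal Agilent arrays made double-stranded by primer extension were incubated with the protein at 200 nM in PBS (pH 7.5), then scanned and quantified. All ungapped 8-mers were scored from probe intensities, and each received an enrichment E-score from the Universal PBM Analysis Suite, averaged over duplicate arrays.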
row,Sequence,PBM E-score of 8-mer
1,CCGGCTTC,-0.184 ± 0.041
2,GAGGGTGC,0.359 ± 0.007
3,AAGTTGAT,0.144 ± 0.023
4,CCTCTCTC,0.132 ± 0.042
5,AGTGTCTG,0.2201 ± 0.0011
6,ACTGATGC,-0.0503 ± 0.087
7,CATAATCA,-0.0563 ± 0.083
8,ACCCGGTC,-0.178 ± 0.048
9,ACTTATTC,0.0245 ± 0.057
10,AAGCTTCG,0.0241 ± 0.049
11,CGTGCGAC,0.238 ± 0.029
12,TAGGACCA,-0.225 ± 0.059
13,CATCCAAA,-0.108 ± 0.0082
14,GGTTCTCA,0.164 ± 0.055
15,CACTTCGG,0.347 ± 0.012
16,AGTGGCAG,0.171 ± 0.033
17,ATTATATG,-0.252 ± 0.075
18,CTCAATGA,-0.0417 ± 0.0066
19,CCCCGTAG,-0.098 ± 0.0035
20,CCTCACGA,-0.0333 ± 0.01
21,TGCGAAAA,0.383 ± 0.038
22,TAACATTA,-0.0674 ± 0.087
23,AGCAAAGC,-0.0455 ± 0.048
24,GTCCGGGA,-0.24 ± 0.0063
25,ATAATTCC,-0.291 ± 0.01

row,Sequence,PBM E-score of 8-mer
1,ACCTACCC,0.0259 ± 0.022
2,ATCTCACA,0.372 ± 0.0029
3,CCAATATC,-0.108 ± 0.032
4,GAAAAGTC,-0.0435 ± 0.043
5,AAGAGAGG,-0.163 ± 0.072
6,AAATGTTG,-0.022 ± 0.054
7,TACATGGA,-0.099 ± 0.029
8,AGAATGCT,-0.0245 ± 0.047
9,CCAGCCAC,0.0592 ± 0.097
10,ATTATTGA,-0.124 ± 0.03
11,GAGCCTAC,-0.098 ± 0.11
12,ATGAAACG,-0.212 ± 0.0067
13,CCCCGTAA,0.0793 ± 0.052
14,AGTAGTTC,0.121 ± 0.054
15,CAAGCGCC,-0.0398 ± 0.063
16,CACAGGAC,0.00838 ± 0.0025
17,AGGGTTGC,-0.0897 ± 0.0017
18,ACTTTAGG,-0.131 ± 0.075
19,AAATCGAT,-0.148 ± 0.05
20,GTCGGGCA,0.177 ± 0.054
21,ACCTAGAG,0.028 ± 0.067
22,CCTCTCAG,-0.0977 ± 0.011
23,GACTCCGC,-0.011 ± 0.024
24,GGCGCTAA,0.4 ± 0.035
25,CTTTGCAA,0.0361 ± 0.021

row,Sequence,PBM E-score of 8-mer
1,ACCGGAAC,-0.2 ± 0.03
2,ACCCGTTG,0.124 ± 0.01
3,AGACGTTG,-0.104 ± 0.061
4,CCCACGAA,0.0416 ± 0.034
5,CTTAGGAC,-0.296 ± 0.04
6,TACTAGCA,0.0537 ± 0.055
7,AGTGTTTG,0.219 ± 0.041
8,TCCAGTAA,-0.172 ± 0.0047
9,AGCTACAC,0.142 ± 0.039
10,CGGCTGAC,-0.00987 ± 0.087
11,CTTCTCGC,0.207 ± 0.023
12,ACGAATCG,0.156 ± 0.013
13,CGGTTGCA,0.111 ± 0.037
14,CGGAGCCG,-0.105 ± 0.061
15,GATACAGA,-0.168 ± 0.013
16,AGCGAACG,0.0538 ± 0.025
17,ATTTCGCC,-0.0532 ± 0.044
18,CGTTTCTA,-0.105 ± 0.033
19,ATCATGAG,-0.199 ± 0.045
20,GATACCTA,-0.163 ± 0.011
21,CATGCCAG,-0.0834 ± 0.021
22,GTTCTCTA,-0.1294 ± 0.00039
23,CGCTTAGA,-0.0545 ± 0.088
24,GAAGGTGC,0.41 ± 0.019
25,AAACCCTT,-0.2653 ± 0.0025

row,Sequence,PBM E-score of 8-mer
1,GATATCTA,-0.0892 ± 0.022
2,CATCGCCA,0.107 ± 0.026
3,ACGATGTC,-0.118 ± 0.0065
4,AGCGTTAT,0.0858 ± 0.052
5,CCAAGATA,-0.0544 ± 0.0035
6,AACTGGCC,0.0198 ± 0.092
7,ACATTTAG,-0.075 ± 0.032
8,TCGATCGA,-0.0919 ± 0.054
9,AATCCTGG,-0.11 ± 0.049
10,GCTCGCGA,0.231 ± 0.037
11,GATAGGTA,-0.0272 ± 0.1
12,CGCCGTGC,-0.0346 ± 0.02
13,CGATACTC,-0.0278 ± 0.047
14,CCGTGAGG,0.00014 ± 0.063
15,CCCAGGCA,-0.237 ± 0.043
16,AGACGTAC,-0.0414 ± 0.071
17,AACCTCTC,-0.0774 ± 0.028
18,AACGGCCG,-0.00712 ± 0.0022
19,ACACCTAT,0.4592 ± 0.0012
20,TGTTAGAA,0.148 ± 0.032
21,GTAACTTA,-0.18 ± 0.14
22,GGTTTCAC,0.252 ± 0.047
23,GGCTGGGA,-0.213 ± 0.0045
24,GCCTCTCA,0.0085 ± 0.045
25,CATCCCGA,0.0316 ± 0.068

row,Sequence,PBM E-score of 8-mer
1,GTATAAAA,-0.213 ± 0.037
2,TCGTTAGA,-0.00685 ± 0.036
3,CTGTTGGC,0.199 ± 0.055
4,ATGCGGAG,-0.068 ± 0.02
5,AGTTCTAT,-0.202 ± 0.011
6,ACAACATG,0.171 ± 0.016
7,ACGAGTGA,0.0998 ± 0.035
8,AGTGACCA,0.11 ± 0.058
9,GGCGCGAA,0.463 ± 0.011
10,GTGAACAC,0.341 ± 0.023
11,ATATATTA,-0.279 ± 0.044
12,TCTTAGCA,0.246 ± 0.0053
13,AGTAAGTG,0.232 ± 0.0076
14,CGCGCGAC,0.284 ± 0.015
15,TCCGAACA,0.0875 ± 0.0097
16,AAAGGGGA,-0.12 ± 0.037
17,ACACTGTG,0.299 ± 0.03
18,ACACGCAC,0.138 ± 0.017
19,CAGAAGGG,0.0708 ± 0.037
20,GACACACA,0.251 ± 0.021
21,ATCCGCCC,-0.217 ± 0.0085
22,ACGCCACG,0.0319 ± 0.14
23,CCGCCAGA,0.0217 ± 0.029
24,CACGCAAC,0.154 ± 0.09
25,AACACCTA,0.4609 ± 0.0024

row,Sequence,PBM E-score of 8-mer
1,ACGGTCAC,0.19 ± 0.056
2,CCCATGCC,-0.273 ± 0.038
3,CAGCAGCC,-0.127 ± 0.0024
4,CGTACCAC,-0.0764 ± 0.081
5,GCTACCCC,-0.0877 ± 0.072
6,GATAAGCC,0.0533 ± 0.0065
7,CCGCTCCA,-0.15 ± 0.031
8,ACCCACCG,-0.116 ± 0.0075
9,GTAATCAC,0.239 ± 0.0074
10,AGCGCACA,0.00948 ± 0.075
11,CACGCGTG,0.34 ± 0.0094
12,CCGATCAG,0.00396 ± 0.037
13,TACCCAGA,-0.153 ± 0.066
14,CGTAGTTA,-0.218 ± 0.043
15,ATCGGGAA,-0.131 ± 0.033
16,CCCCGTTC,0.0168 ± 0.039
17,AACCGTAC,-0.119 ± 0.017
18,ACGTTAAT,0.0812 ± 0.022
19,CACCGAAC,0.187 ± 0.073
20,ATTCCTGG,-0.309 ± 0.056
21,GCGGCCAA,0.0926 ± 0.055
22,GAAGGGGA,-0.0835 ± 0.056
23,ATTACTAG,-0.033 ± 0.00078
24,ACATGGGA,-0.0673 ± 0.097
25,GGCTTGTA,-0.189 ± 0.029

row,Sequence,PBM E-score of 8-mer
1,CCCGTAAA,-0.0141 ± 0.076
2,AGGCTCCA,-0.0967 ± 0.023
3,CATATTAG,-0.0681 ± 0.017
4,GACCGGTC,0.0284 ± 0.076
5,GTATGTAA,-0.216 ± 0.01
6,GACCTTCC,-0.00679 ± 0.036
7,CACAATTA,0.259 ± 0.041
8,ACACGGAC,0.0746 ± 0.055
9,AACCGATC,0.0581 ± 0.0084
10,GTCACATA,0.247 ± 0.043
11,CATCTCAC,0.308 ± 0.006
12,CTCTCTCA,0.135 ± 0.0023
13,CACACACC,0.454 ± 0.013
14,CTCCGGCC,-0.234 ± 0.013
15,AAGGATTG,-0.0744 ± 0.013
16,ACATCGTG,0.0075 ± 0.037
17,AGCACCAA,0.174 ± 0.04
18,CCATCCGC,-0.0678 ± 0.075
19,AAGTTTGT,-0.0997 ± 0.016
20,CGGATCAC,0.163 ± 0.0029
21,GCCTTACA,0.0297 ± 0.056
22,AGACAGCC,-0.14 ± 0.054
